Experimental findings from article PMC4336329 (PLoS ONE, 2015) are described below.

About 14,000 (4.5%) of roughly 310,000 compounds showed an effect of 50% or more. The effect is printed as a negative number. This is one part of the list.
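Note: peak tail current of the secondary pulse compared with the same well before compound.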

Sequence of human ether-à-go-go-related gene (hERG) potassium channel (Q12809 whole entry, looked up): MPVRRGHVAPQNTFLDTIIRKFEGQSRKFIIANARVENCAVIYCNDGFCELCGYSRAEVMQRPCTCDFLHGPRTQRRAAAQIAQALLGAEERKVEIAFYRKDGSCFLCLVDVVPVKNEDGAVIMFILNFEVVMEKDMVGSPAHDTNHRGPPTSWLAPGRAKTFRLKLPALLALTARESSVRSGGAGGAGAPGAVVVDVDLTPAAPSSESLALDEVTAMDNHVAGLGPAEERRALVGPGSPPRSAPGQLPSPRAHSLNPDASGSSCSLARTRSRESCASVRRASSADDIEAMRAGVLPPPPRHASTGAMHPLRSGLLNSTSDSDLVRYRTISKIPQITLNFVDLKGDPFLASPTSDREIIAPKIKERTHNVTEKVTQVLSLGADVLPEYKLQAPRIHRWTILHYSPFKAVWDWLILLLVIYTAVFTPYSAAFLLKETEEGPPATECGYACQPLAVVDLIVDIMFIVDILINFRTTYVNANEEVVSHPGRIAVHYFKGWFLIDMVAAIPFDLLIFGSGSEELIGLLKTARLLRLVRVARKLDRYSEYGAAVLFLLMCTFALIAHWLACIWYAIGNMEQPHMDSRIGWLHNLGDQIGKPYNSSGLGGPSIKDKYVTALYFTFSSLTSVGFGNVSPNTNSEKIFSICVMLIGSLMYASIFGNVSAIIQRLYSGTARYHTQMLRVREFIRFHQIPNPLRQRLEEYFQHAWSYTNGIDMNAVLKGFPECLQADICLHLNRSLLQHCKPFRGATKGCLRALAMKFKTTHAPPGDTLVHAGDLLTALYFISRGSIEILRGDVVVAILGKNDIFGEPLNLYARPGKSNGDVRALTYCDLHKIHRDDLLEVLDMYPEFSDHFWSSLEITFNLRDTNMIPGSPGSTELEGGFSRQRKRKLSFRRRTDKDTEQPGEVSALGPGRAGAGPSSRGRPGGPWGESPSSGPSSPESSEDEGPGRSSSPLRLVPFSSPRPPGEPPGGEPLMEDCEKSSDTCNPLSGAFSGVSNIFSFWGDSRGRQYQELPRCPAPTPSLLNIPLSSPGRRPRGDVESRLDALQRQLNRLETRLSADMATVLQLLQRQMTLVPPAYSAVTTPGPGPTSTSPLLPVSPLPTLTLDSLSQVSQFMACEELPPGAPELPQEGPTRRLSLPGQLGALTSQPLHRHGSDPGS

This assay has as its target human ether-à-go-go-related gene (hERG) potassium channel (human, UniProt Q12809). As to the kind of experiment: primary screen, population patch clamp on CHO cells stably expressing hERG.
Take `COc1ccc(C(=O)N/N=c2\oc3ccccc3cc2C(=O)NCc2ccccc2)cc1`: the “hERG current change (%, negative = inhibition) at 10uM” value is given as -37%.

As to `O=C(NNC(=O)c1ccccc1-n1cccc1)c1cccc(Cl)c1`, the “hERG current change (%, negative = inhibition) at 10uM” value is recorded as -2.08%.

For `CCCOc1ccc(-c2nc(=S)[nH][nH]2)cc1`, the “hERG current change (%, negative = inhibition) at 10uM” value is given as 20.1%.

Consider `CCOc1ccc(C(=O)NC(=S)Nc2ccccc2N2CCCCC2)cc1[N+](=O)[O-]`, for which the “hERG current change (%, negative = inhibition) at 10uM” value turned out to be 11.7%.

Regarding `Cc1cccc(-c2csc(NC(=O)c3cnccn3)c2C(=O)OC(C)C)c1`, the “hERG current change (%, negative = inhibition) at 10uM” value is recorded as 9.98%.

Take `COc1ccc(CC(=O)OCC(=O)Nc2ncc(Cl)cc2Cl)cc1`: the “hERG current change (%, negative = inhibition) at 10uM” value is -1.19%.

Take `Cc1ccc(CNC(=O)c2cc3c(=O)n4ccccc4nc3n(Cc3ccco3)c2=N)cc1`: the “hERG current change (%, negative = inhibition) at 10uM” value is recorded as -75.5%.

For `COc1ccc(CN2CCCCC2C)cc1OC` (stereo not drawn), the “hERG current change (%, negative = inhibition) at 10uM” value was -20.1%.

With `NC(=O)C1CCN(C(=O)CN2CCN(c3cccc(C(F)(F)F)c3)CC2)CC1`, the “hERG current change (%, negative = inhibition) at 10uM” value is -2.01%.

Take `O=C(CSc1nc(=O)n2ccccc2n1)NCc1ccc(F)cc1`: the “hERG current change (%, negative = inhibition) at 10uM” value is given as -0.132%.

Regarding `Cn1c(NC(=O)c2ccc(C(C)(C)C)cc2)cc(=O)n(C)c1=O`, the “hERG current change (%, negative = inhibition) at 10uM” value amounted to 9.75%.

`Cc1cc(OCC(=O)Nc2ccc(S(=O)(=O)N3CCN(C)CC3)cc2)ccc1Cl`: the “hERG current change (%, negative = inhibition) at 10uM” value is on record as -25.1%.

On to `COc1ccc(-c2ncc3ccccn23)cc1`, for which the “hERG current change (%, negative = inhibition) at 10uM” value was -5.24%.

Turning to `Cc1c(C2(c3c(C)n(C)n(-c4ccccc4)c3=O)C(=O)Nc3ccc(F)cc32)c(=O)n(-c2ccccc2)n1C`, the “hERG current change (%, negative = inhibition) at 10uM” value is on record as 17.5%.

`COc1ccccc1OCCNC(=O)Cc1ccc(Cl)c(Cl)c1`: the “hERG current change (%, negative = inhibition) at 10uM” value was -20.6%.

As for `COC(=O)c1c(NC(=O)COc2ccc(Cl)cc2Cl)sc2c1CC(C)(C)NC2(C)C`, the “hERG current change (%, negative = inhibition) at 10uM” value was determined as 14.4%.

Turning to `CCc1nnc(NC(=O)CSc2nnc(-c3ccc(S(=O)(=O)N4CCCC4)cc3)n2CC)s1`, the “hERG current change (%, negative = inhibition) at 10uM” value is 8.86%.

On to `COCCCNCCC(CCC(C)C)c1ccc2c(c1)OCO2.Cl` (stereo not drawn), for which the “hERG current change (%, negative = inhibition) at 10uM” value is -80.2%.

For the compound `c1coc(-c2nnc3n2C2(CCCC2)Cc2ccccc2-3)c1`, the “hERG current change (%, negative = inhibition) at 10uM” value stood at 10.2%.

Regarding `Cc1cccc(C)c1NC(=O)CSc1nnc(C2CCCCC2)o1`, the “hERG current change (%, negative = inhibition) at 10uM” value was 0.666%.

Turning to `COc1ccc(C(=O)N2CCC(C(=O)N3CCN(c4ccccc4)CC3)CC2)cc1`, the “hERG current change (%, negative = inhibition) at 10uM” value was -48.7%.

Consider `O=C(NNC(=O)C1CCN(Cc2ccc(Cl)c(Cl)c2)CC1)c1cccs1`, for which the “hERG current change (%, negative = inhibition) at 10uM” value worked out at 6.67%.

For `CCCCOC(=O)c1ccc(NC(=O)c2ccccc2OC)cc1`, the “hERG current change (%, negative = inhibition) at 10uM” value is -2.15%.

Turning to `COc1ccc(CCNC(=O)CNS(=O)(=O)c2ccc(F)c(Cl)c2)cc1OC`, the “hERG current change (%, negative = inhibition) at 10uM” value was 5.14%.

Turning to `Cc1ccccc1Nc1nc(N)nc(COC(=O)CC2CC3CCC2C3)n1` (stereo not drawn), the “hERG current change (%, negative = inhibition) at 10uM” value is 1.44%.

`CC(C)CNC(=O)c1nn(Cc2ccccc2)c(=O)c2ccccc12`: the “hERG current change (%, negative = inhibition) at 10uM” value was -16%.

Turning to `CCn1nc(C)c(Br)c1-c1nc(-c2ccc(C)cc2)no1`, the “hERG current change (%, negative = inhibition) at 10uM” value was 18.2%.

`c1ccc(Cn2nnnc2C(c2cccnc2)N2CCN(C3CCCCC3)CC2)cc1` (stereo not drawn): the “hERG current change (%, negative = inhibition) at 10uM” value was -24.9%.

Take `COc1ccc(CN2C(=O)NC(=O)/C(=C/c3ccc([N+](=O)[O-])s3)C2=O)cc1`: the “hERG current change (%, negative = inhibition) at 10uM” value was 17.3%.

Turning to `Cc1ccc(C(=O)NC(=S)NNC(=O)COc2ccccc2C)cc1`, the “hERG current change (%, negative = inhibition) at 10uM” value is 15.3%.

On to `CCCCc1nc2ccccc2c(NC(=O)CN2CCCC2)c1CCC.O=C(O)C(=O)O`, for which the “hERG current change (%, negative = inhibition) at 10uM” value is recorded as -22.5%.

With `O=C1c2ccccc2C(Nc2ccc(S(=O)(=O)N3CCOCC3)cc2)N1c1ccccn1` (stereo not drawn), the “hERG current change (%, negative = inhibition) at 10uM” value is on record as -19.5%.

Regarding `CN(CCc1cn[nH]c1)Cc1nc(C(c2ccccc2)c2ccccc2)no1`, the “hERG current change (%, negative = inhibition) at 10uM” value is reported as -38.5%.

For the compound `N#CCSc1nc2sccc2c(=O)n1-c1ccccc1`, the “hERG current change (%, negative = inhibition) at 10uM” value was found to be 12.5%.

Consider `O=C(CN(c1cccc(Cl)c1)S(=O)(=O)c1ccccc1)NN=C1CCCC1`, for which the “hERG current change (%, negative = inhibition) at 10uM” value is -9.24%.

In the case of `O=C(COC(=O)c1ccc(F)c(S(=O)(=O)N2CCOCC2)c1)Nc1ccc2[nH]c(=O)[nH]c2c1`, the “hERG current change (%, negative = inhibition) at 10uM” value worked out at 27.2%.

For the compound `COC(=O)c1sc(S(=O)(=O)N2CCC(C)CC2)c(C(=O)OC)c1C`, the “hERG current change (%, negative = inhibition) at 10uM” value was -9.48%.

Consider `CCOc1ccccc1NC(=O)c1ccc(NC(=O)C2CCCO2)cc1` (stereo not drawn), for which the “hERG current change (%, negative = inhibition) at 10uM” value came to 3.08%.

`O=C(CN1C(=O)NC2(CCCC2)C1=O)Nc1ccc(F)c(Cl)c1`: the “hERG current change (%, negative = inhibition) at 10uM” value is given as 0.502%.

As for `CN1CCN(c2nc(-c3cccs3)cc(C(F)(F)F)n2)CC1`, the “hERG current change (%, negative = inhibition) at 10uM” value is recorded as -48.8%.

On to `COCCN1C(=O)N[C@@H](c2cccc(C(F)(F)F)c2)[C@H](C(C)=O)[C@H]1C`, for which the “hERG current change (%, negative = inhibition) at 10uM” value is given as 4.22%.

Consider `CCOC(=O)C1CCCN(C(=O)c2cc3ccc(OC)cc3[nH]2)C1` (stereo not drawn), for which the “hERG current change (%, negative = inhibition) at 10uM” value came to 6.4%.

Consider `c1coc(-c2nnc(NC3=NCCC3)o2)c1`, for which the “hERG current change (%, negative = inhibition) at 10uM” value was found to be 8.95%.

For `CCN(CC)C(=O)N1c2ccccc2CC(N(CC)CC)c2ccccc21` (stereo not drawn), the “hERG current change (%, negative = inhibition) at 10uM” value is on record as -24.4%.

With `Cc1cc(C)c(NC(=O)CN2CCN3CCCC3C2)c(C)c1.O=C(O)/C=C/C(=O)O` (stereo not drawn), the “hERG current change (%, negative = inhibition) at 10uM” value was -7.01%.

For the compound `Nc1nc(Cl)cc(Nc2ccccc2Cl)n1`, the “hERG current change (%, negative = inhibition) at 10uM” value amounted to 11.7%.

`O=C(NCCc1ccccc1)c1ccc(CS(=O)(=O)Cc2ccc(F)cc2)o1`: the “hERG current change (%, negative = inhibition) at 10uM” value amounted to 12.8%.

Consider `Cc1ccc(Nc2nc(-c3cccnc3)nc3ccccc23)cc1`, for which the “hERG current change (%, negative = inhibition) at 10uM” value was -3.36%.

As to `Cc1cccc(NC(=O)CNC(=O)c2sc3ccccc3c2Cl)n1`, the “hERG current change (%, negative = inhibition) at 10uM” value was -6.1%.

Take `COc1c(C)cc(C(=O)C2CCCN(C(=O)c3cc(C)nc(C)n3)C2)cc1C` (stereo not drawn): the “hERG current change (%, negative = inhibition) at 10uM” value is 7.89%.

Take `COc1ccc(NC(=O)[C@@H]2CC=C[C@@H]3CCN(Cc4ccc(Cl)c(Cl)c4)C(=O)[C@@H]32)cc1`: the “hERG current change (%, negative = inhibition) at 10uM” value was -5.33%.

As to `CC1=C(C(=O)OC(C)C)C(c2ccc(Cl)cc2)n2c(s/c(=C\c3ccc(OCC(=O)O)cc3)c2=O)=N1` (stereo not drawn), the “hERG current change (%, negative = inhibition) at 10uM” value was found to be 21.7%.

As to `COc1ccc(C(=O)NCc2nnc(SCC(=O)Nc3cc(C)cc(C)c3)o2)cc1OC`, the “hERG current change (%, negative = inhibition) at 10uM” value was -25.5%.

On to `Cc1nnc(C)c2c(C)n(-c3ccccc3N)c(C)c12`, for which the “hERG current change (%, negative = inhibition) at 10uM” value is -11.8%.
